The record followed here is US20230203100A1, “COMPOSITIONS INCLUDING MULTI-AGONIST PEPTIDES AND METHODS OF MANUFACTURE AND USE” (Pep2Tango Therapeutics Inc., priority 2021, published 2023).

The nature of this assay: Blood glucose after single s.c. administration in non-fasted mice. The format is in vivo. Particulars: for Blood glucose 30 min / Blood glucose 120 min / Blood glucose Time 0: 50 nmoles/Kg single s.c., mean±SEM; for Blood glucose 30 min: 30 min after injection; for Blood glucose 120 min: 120 min after injection; for Blood glucose Time 0: time 0 (baseline). On the procedure:
Differences were considered statistically significant at p<0.05. Data analysis was carried out with GraphPad software (GraphPad Prism).

Non-standard residues stand in square brackets, D forms with d.

Turning to “Cagrilintide (KCNTATCATQRLAEFLRHSSNNFGPILPPTNVGSNTP; chains of the INN, looked up) [a dual calcitonin/amylin agonist, reference compound]”, the “Blood glucose 30 min” value turned out to be 163.2 ± 3.62 mg/dL, the “Blood glucose 120 min” value turned out to be 157.0 ± 3.85 mg/dL and the “Blood glucose Time 0” value was found to be 150.2 ± 1.36 mg/dL. Further, the “Significant reduction of blood glucose at 30 and 120 min compared to time 0” value (50 nmol/kg single s.c., result in words) is given as “not”.

B1: Y-(d)AEGTFTSDYSIALDKIAQQAFVQWLLAGGPSCNTATCVLGRLSQELHRLQTYPRTNTGK*-N-T-Y-NH2 (peptide)
chain: Y[dA]EGTFTSDYSIALDKIAQQAFVQWLLAGGPSCNTATCVLGRLSQELHRLQTYPRTNTGKNTY-NH2
modifications: not fully specified (residue 60); also: acyl end R3 and chain length n (12-20) not fixed
notes: K* indicates a linking group, e.g. Lys-γGlu-γGlu—C(═O)(CH2)nR3
Regarding B1, the “Blood glucose 30 min” value came out at 142.0 ± 8.15 mg/dL, the “Blood glucose 120 min” value worked out at 132.0 ± 5.28 mg/dL and the “Blood glucose Time 0” value is 170.8 ± 3.53 mg/dL.
